Test results from the supplement of paper PMC8728848.
This is one part of the list.

Experiments:
Assay in all cases: glycan array binding signal (z-score within array); higher = stronger binding
Conditions in all cases: glycan notation: IUPAC condensed, linker removed
[1] = biological target: Neu5Ac(a2-6)Gal(b1-4)GlcNAc(b1-2)Man(a1-6)[Man(a1-3)]Man(b1-4)GlcNAc(b1-4)GlcNAc
Procedure, shortened: (§1)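 From the Consortium for Functional Glycomics database, 3228 arrays were curated, keeping only those whose protein sequence was available. Binding is given as a within-array Z-score averaged across arrays sharing a protein sequence and across linkers. Negative Z-scores can be read as non-binding.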

[2] = biological target: Neu5Ac(a2-6)Gal(b1-4)GlcNAc(b1-2)[Neu5Ac(a2-6)Gal(b1-4)GlcNAc(b1-4)]Man(a1-3)[GlcNAc(b1-4)][Neu5Ac(a2-6)Gal(b1-4)GlcNAc(b1-2)[Neu5Ac(a2-6)Gal(b1-4)GlcNAc(b1-6)]Man(a1-6)]Man(b1-4)GlcNAc(b1-4)GlcNAc
Procedure, shortened: as §1

[3] = biological target: Neu5Ac(a2-6)Gal(b1-4)GlcNAc(b1-2)[Neu5Ac(a2-6)Gal(b1-4)GlcNAc(b1-4)]Man(a1-3)[GlcNAc(b1-4)][Neu5Ac(a2-6)Gal(b1-4)GlcNAc(b1-4)Man(a1-6)]Man(b1-4)GlcNAc(b1-4)GlcNAc
Procedure, shortened: as §1

[4] = biological target: Neu5Ac(a2-6)Gal(b1-4)GlcNAc(b1-2)[Neu5Ac(a2-6)Gal(b1-4)GlcNAc(b1-6)]Man(a1-6)[Neu5Ac(a2-6)Gal(b1-4)GlcNAc(b1-2)Man(a1-3)][GlcNAc(b1-4)]Man(b1-4)GlcNAc(b1-4)GlcNAc
Procedure, shortened: as §1

[5] = biological target: Neu5Ac(a2-6)Gal(b1-4)GlcNAc(b1-3)Gal(b1-3)GlcNAc
Procedure, shortened: as §1

[6] = biological target: Neu5Ac(a2-6)Gal(b1-4)GlcNAc(b1-3)Gal(b1-4)GlcNAc
Procedure, shortened: as §1

[7] = biological target: Neu5Ac(a2-6)Gal(b1-4)GlcNAc(b1-3)Gal(b1-4)GlcNAc(b1-2)Man(a1-3)[Neu5Ac(a2-6)Gal(b1-4)GlcNAc(b1-3)Gal(b1-4)GlcNAc(b1-2)Man(a1-6)]GalNAc
Procedure, shortened: as §1

[8] = biological target: Neu5Ac(a2-6)Gal(b1-4)GlcNAc(b1-3)Gal(b1-4)GlcNAc(b1-3)Gal(b1-4)GlcNAc
Procedure, shortened: as §1

[9] = biological target: Neu5Ac(a2-6)Gal(b1-4)GlcNAc(b1-3)Gal(b1-4)GlcNAc(b1-3)Gal(b1-4)GlcNAc(b1-2)Man(a1-3)[Neu5Ac(a2-6)Gal(b1-4)GlcNAc(b1-3)Gal(b1-4)GlcNAc(b1-3)Gal(b1-4)GlcNAc(b1-2)Man(a1-6)]GalNAc
Procedure, shortened: as §1

[10] = biological target: Neu5Ac(a2-6)Gal(b1-4)GlcNAc(b1-3)Gal(b1-4)GlcNAc(b1-3)GalNAc
Procedure, shortened: as §1

[11] = biological target: Neu5Ac(a2-6)Gal(b1-4)GlcNAc(b1-3)Gal(b1-4)GlcNAc(b1-3)[Neu5Ac(a2-6)Gal(b1-4)GlcNAc(b1-3)Gal(b1-4)GlcNAc(b1-6)]GalNAc
Procedure, shortened: as §1

[12] = biological target: Neu5Ac(a2-6)Gal(b1-4)GlcNAc(b1-3)Gal(b1-4)GlcNAc(b1-6)[Gal(b1-3)]GalNAc
Procedure, shortened: as §1

[13] = biological target: Neu5Ac(a2-6)Gal(b1-4)GlcNAc(b1-3)Gal(b1-4)[Fuc(a1-3)]GlcNAc(b1-3)Gal(b1-4)[Fuc(a1-3)]GlcNAc
Procedure, shortened: as §1

[14] = biological target: Neu5Ac(a2-6)Gal(b1-4)GlcNAc(b1-3)GalNAc
Procedure, shortened: as §1

[15] = biological target: Neu5Ac(a2-6)Gal(b1-4)GlcNAc(b1-3)[Neu5Ac(a2-6)Gal(b1-4)GlcNAc(b1-6)]GalNAc
Procedure, shortened: as §1

[16] = biological target: Neu5Ac(a2-6)Gal(b1-4)GlcNAc(b1-6)GalNAc
Procedure, shortened: as §1

[17] = biological target: Neu5Ac(a2-6)Gal(b1-4)GlcNAc(b1-6)[Gal(b1-3)GlcNAc(b1-3)]Gal(b1-4)Glc
Procedure, shortened: as §1

[18] = biological target: Neu5Ac(a2-6)Gal(b1-4)GlcNAc(b1-6)[Gal(b1-3)]GalNAc
Procedure, shortened: as §1

[19] = biological target: Neu5Ac(a2-6)Gal(b1-4)GlcNAc6S
Procedure, shortened: as §1

Neu5Ac(a2-6)GalNAc = biological target: Neu5Ac(a2-6)GalNAc
Procedure, shortened: as §1

[20] = biological target: Neu5Ac(a2-6)GalNAc(b1-4)GlcNAc
Procedure, shortened: as §1

[21] = biological target: Neu5Ac(a2-6)GalNAc(b1-4)GlcNAc6S
Procedure, shortened: as §1

[22] = biological target: Neu5Ac(a2-6)GlcNAc(b1-4)GlcNAc
Procedure, shortened: as §1

[23] = biological target: Neu5Ac(a2-6)GlcNAc(b1-4)GlcNAc(b1-4)GlcNAc
Procedure, shortened: as §1

Neu5Ac(a2-8)Neu5Ac = biological target: Neu5Ac(a2-8)Neu5Ac
Procedure, shortened: as §1

[24] = biological target: Neu5Ac(a2-8)Neu5Ac(a2-3)Gal(b1-3)GalNAc(b1-4)[Neu5Ac(a2-3)]Gal(b1-4)Glc
Procedure, shortened: as §1

[25] = biological target: Neu5Ac(a2-8)Neu5Ac(a2-3)Gal(b1-3)GalNAc(b1-4)[Neu5Ac(a2-8)Neu5Ac(a2-3)]Gal(b1-4)Glc
Procedure, shortened: as §1

[26] = biological target: Neu5Ac(a2-8)Neu5Ac(a2-3)Gal(b1-4)Glc
Procedure, shortened: as §1

[27] = biological target: Neu5Ac(a2-8)Neu5Ac(a2-3)Gal(b1-4)GlcNAc
Procedure, shortened: as §1

[28] = biological target: Neu5Ac(a2-8)Neu5Ac(a2-3)[Gal(b1-3)GalNAc(b1-4)]Gal(b1-4)Glc
Procedure, shortened: as §1

[29] = biological target: Neu5Ac(a2-8)Neu5Ac(a2-3)[GalNAc(b1-4)]Gal(b1-4)Glc
Procedure, shortened: as §1

[30] = biological target: Neu5Ac(a2-8)Neu5Ac(a2-8)Neu5Ac
Procedure, shortened: as §1

[31] = biological target: Neu5Ac(a2-8)Neu5Ac(a2-8)Neu5Ac(a2-3)Gal(b1-4)Glc
Procedure, shortened: as §1

[32] = biological target: Neu5Ac(a2-8)Neu5Ac(a2-8)Neu5Ac(a2-3)[Gal(b1-3)GalNAc(b1-4)]Gal(b1-4)Glc
Procedure, shortened: as §1

[33] = biological target: Neu5Ac(a2-8)Neu5Ac(a2-8)Neu5Ac(a2-3)[GalNAc(b1-4)]Gal(b1-4)Glc
Procedure, shortened: as §1

[34] = biological target: Neu5Ac(a2-8)Neu5Ac(a2-8)Neu5Ac(a2-8)Neu5Ac(a2-3)[GalNAc(b1-4)]Gal(b1-4)Glc
Procedure, shortened: as §1

[35] = biological target: Neu5Ac(a2-8)Neu5Gc(a2-3)Gal(b1-4)GlcNAc
Procedure, shortened: as §1

[36] = biological target: Neu5Ac(b2-6)Gal(b1-4)GlcNAc
Procedure, shortened: as §1

Neu5Ac(b2-6)GalNAc = biological target: Neu5Ac(b2-6)GalNAc
Procedure, shortened: as §1

[37] = biological target: Neu5Ac9Ac(a2-3)Gal(b1-3)GlcNAc
Procedure, shortened: as §1

[38] = biological target: Neu5Ac9Ac(a2-3)Gal(b1-4)GlcNAc
Procedure, shortened: as §1

[39] = biological target: Neu5Ac9Ac(a2-6)Gal(b1-4)GlcNAc
Procedure, shortened: as §1

[40] = biological target: Neu5Gc(a2-3)Gal(b1-3)GlcNAc
Procedure, shortened: as §1

[41] = biological target: Neu5Gc(a2-3)Gal(b1-3)[Fuc(a1-4)]GlcNAc
Procedure, shortened: as §1

Neu5Gc(a2-3)Gal(b1-4)Glc = biological target: Neu5Gc(a2-3)Gal(b1-4)Glc
Procedure, shortened: as §1

[42] = biological target: Neu5Gc(a2-3)Gal(b1-4)GlcNAc
Procedure, shortened: as §1

[43] = biological target: Neu5Gc(a2-3)Gal(b1-4)GlcNAc(b1-3)Gal(b1-4)GlcNAc(b1-2)Man(a1-3)[Neu5Gc(a2-3)Gal(b1-4)GlcNAc(b1-3)Gal(b1-4)GlcNAc(b1-2)Man(a1-6)]Man(b1-4)GlcNAc(b1-4)GlcNAc
Procedure, shortened: as §1

[44] = biological target: Neu5Gc(a2-3)Gal(b1-4)[Fuc(a1-3)]GlcNAc
Procedure, shortened: as §1

[45] = biological target: Neu5Gc(a2-6)Gal(b1-4)GlcNAc
Procedure, shortened: as §1

Neu5Gc(a2-6)GalNAc = biological target: Neu5Gc(a2-6)GalNAc
Procedure, shortened: as §1

[46] = biological target: Neu5Gc(a2-8)Neu5Ac(a2-3)Gal(b1-4)GlcNAc
Procedure, shortened: as §1

[47] = biological target: Neu5Gc(a2-8)Neu5Gc(a2-3)Gal(b1-4)GlcNAc
Procedure, shortened: as §1

[48] = biological target: Neu5Gc(a2-8)Neu5Gc(a2-3)Gal(b1-4)GlcNAc(b1-3)Gal(b1-4)GlcNAc
Procedure, shortened: as §1

[49] = biological target: Neu5Gc(a2-8)Neu5Gc(a2-6)Gal(b1-4)GlcNAc
Procedure, shortened: as §1

[50] = biological target: Neu5Gc(b2-6)Gal(b1-4)GlcNAc
Procedure, shortened: as §1

B1: Gal 4 (Mus musculus), P56470 (protein)
chain: MAYVPAPGYQPTYNPTLPYYQPIPGGLNVGMSVYIQGVASEHMKRFFVNFVVGQDPGSDVAFHFNPRFDGWDKVVFNTLQGGKWGSEERKRSMPFKKGAAFELVFIVLAEHYKVVVNGNPFYEYGHRLPLQMVTHLQVDGDLQLQSINFIGGQPLRPQGPPMMPPYPGPGHCHQQLNSLPTMEGPPTFNPPVPYFGRLQGGLTARRTIIIKGYVPPTGKSFAINFKVGSSGDIALHINPRMGNGTVVRNSLLNGSWGSEEKKITHNPFGPGQFFDLSIRCGLDRFKVYANGQHLFDFAHRLSAFQRVDTLEIQGDVTLSYVQI
[1]
  glycan array binding signal (z-score): -0.217
[2]
  glycan array binding signal (z-score): -0.271
[3]
  glycan array binding signal (z-score): -0.308
[4]
  glycan array binding signal (z-score): -0.286
[5]
  glycan array binding signal (z-score): 0.457
[6]
  glycan array binding signal (z-score): -0.165
[7]
  glycan array binding signal (z-score): -0.269
[8]
  glycan array binding signal (z-score): -0.073
[9]
  glycan array binding signal (z-score): -0.294
[10]
  glycan array binding signal (z-score): -0.155
[11]
  glycan array binding signal (z-score): -0.252
[12]
  glycan array binding signal (z-score): -0.027
[13]
  glycan array binding signal (z-score): -0.213
[14]
  glycan array binding signal (z-score): -0.248
[15]
  glycan array binding signal (z-score): -0.251
[16]
  glycan array binding signal (z-score): -0.265
[17]
  glycan array binding signal (z-score): -0.295
[18]
  glycan array binding signal (z-score): -0.281
[19]
  glycan array binding signal (z-score): -0.212
Neu5Ac(a2-6)GalNAc
  glycan array binding signal (z-score): -0.23
[20]
  glycan array binding signal (z-score): -0.241
[21]
  glycan array binding signal (z-score): -0.293
[22]
  glycan array binding signal (z-score): -0.239
[23]
  glycan array binding signal (z-score): -0.227
Neu5Ac(a2-8)Neu5Ac
  glycan array binding signal (z-score): -0.226
[24]
  glycan array binding signal (z-score): -0.247
[25]
  glycan array binding signal (z-score): -0.26
[26]
  glycan array binding signal (z-score): -0.211
[27]
  glycan array binding signal (z-score): -0.224
[28]
  glycan array binding signal (z-score): -0.238
[29]
  glycan array binding signal (z-score): -0.238
[30]
  glycan array binding signal (z-score): -0.246
[31]
  glycan array binding signal (z-score): -0.237
[32]
  glycan array binding signal (z-score): -0.315
[33]
  glycan array binding signal (z-score): -0.227
[34]
  glycan array binding signal (z-score): -0.221
[35]
  glycan array binding signal (z-score): -0.228
[36]
  glycan array binding signal (z-score): -0.233
Neu5Ac(b2-6)GalNAc
  glycan array binding signal (z-score): -0.239
[37]
  glycan array binding signal (z-score): -0.199
[38]
  glycan array binding signal (z-score): -0.226
[39]
  glycan array binding signal (z-score): -0.232
[40]
  glycan array binding signal (z-score): -0.235
[41]
  glycan array binding signal (z-score): -0.249
Neu5Gc(a2-3)Gal(b1-4)Glc
  glycan array binding signal (z-score): -0.222
[42]
  glycan array binding signal (z-score): -0.232
[43]
  glycan array binding signal (z-score): -0.262
[44]
  glycan array binding signal (z-score): -0.253
[45]
  glycan array binding signal (z-score): -0.231
Neu5Gc(a2-6)GalNAc
  glycan array binding signal (z-score): -0.202
[46]
  glycan array binding signal (z-score): -0.253
[47]
  glycan array binding signal (z-score): -0.315
[48]
  glycan array binding signal (z-score): -0.309
[49]
  glycan array binding signal (z-score): -0.289
[50]
  glycan array binding signal (z-score): -0.22
